Assay results: the RNAGym collection of RNA variant scans (doi:10.7554/elife.90254)
Read counts are not given, so values of variants with three or more changes are uncertain.

B1: LINE1-mini (parent)
chain: GGCAGAGCUCAACACAGCGUGGCAAAGUGGCUGUGGCUAGACUGCC

Variants of: B1
Experiment: self-cleavage, relative activity (ratio to wild type); higher = more cleavage; in vitro, sequencing; the parent is a self-cleaving ribozyme

| Variant | self-cleavage |
| --- | --- |
| GGCAGAGCUCAACACAGCGUGACAAAGUGGCUUUGGGUAGACUGCC [G22A G33U C37G] | 0.02 |
| GGCAGAGCUCAGCACAGCGUGGCAAAGUAGCUGUGGCUGGACUGCC [A12G G29A A39G] | 0.02 |
| GGCACAUCUCAACUCAGCGUGGCAAAUUGGCUGUGGAUAGACUGCU [G5C G7U A14U G27U C37A C46U] | 0.18 |
| GGCAGAGCUCAACACAGCGUGGCAAAGUCGCUGAGGCUAGGCUGCC [G29C U34A A41G] | 0.03 |
| GGCAUAGCUGAACACAGCGUGGCUAAGUGGCUGUGGCUAGACUGCC [G5U C10G A24U] | 0.04 |
| GGCCGAGCUUAACACAGCGUGGCAAAGUGGCUGUGGCUAGACUGGC [A4C C10U C45G] | 0.07 |
| GACAGGGCUCAACACAGCGUGGAAAAGUGGCUGUGGCUAGACUGCC [G2A A6G C23A] | 0.12 |
| GGCAGAGCUCAACACGGCGUAGCCAAGUGCGUAUCGCUAGACUGCC [A16G G21A A24C G30C C31G G33A G35C] | 0.01 |
| GGCAGACCUCAACACAGCAUGGCAAAGUGCCUGUUGCUAGAUUGCC [G7C G19A G30C G35U C42U] | 0.12 |
| GGCAAAGCUCAACACAGCGUGCCAAGGUGGCACUGGCUAGACUGUC [G5A G22C A26G U32A G33C C45U] | 0.02 |
| GGCUGAGCUCAACACCGCGUGGCAAAGUGGCUGUGGAUAGACUGCC [A4U A16C C37A] | 0.01 |
| GACAGAGCUCAACACAGCUUGGCAAAGUACCGGUGGCUAGACUGCC [G2A G19U G29A G30C U32G] | 0.06 |
| GGCAGAGCUCAACACAGCGUGACAAAGUGGCUGUGGGUAAACUGCC [G22A C37G G40A] | 0.04 |
| GGAAAAGCUCGACACAGCGUGGCAAAGUGGCUGUGGCUAGACUGCC [C3A G5A A11G] | 0.12 |
| GGCAGAGAUCAACACAGCGUGGCAAAGUGUCUGUGGCUAGACUACC [C8A G30U G44A] | 0.06 |
| GGCAGAGCACAAUACAGCUUGGCUAAGCGGCUGUGGCUAGACUGCC [U9A C13U G19U A24U U28C] | 0.06 |
| GGCAGAGCUCAUCACAGCGUGCCAAAGUCGCUGUGGCUAGACUGCC [A12U G22C G29C] | 0.21 |
| GGCAGGGCUCAACACGGCGUGGCAAAGUGGCUGUGGUUAGGCUGCC [A6G A16G C37U A41G] | 0.02 |
| GGCAGAGCUGAACACAGCGUGGCAAAAUGGCUUUGGCGAGACUGCC [C10G G27A G33U U38G] | 0.01 |

| Variant | self-cleavage |
| --- | --- |
| GGCAGUGCUCAACACAGUGUGGCAAAGUGGAUAUGGCUAGACUGCC [A6U C18U C31A G33A] | 0.06 |
| UGCAGAGCUCAGCACAGGGUGUCAAAGUGGCUGUGGCUAGACUGCC [G1U A12G C18G G22U] | 0.02 |
| GGCAGAGCUCAAUACAGCGUGCCACAGUGGCUUUGGCUAGACUGCC [C13U G22C A25C G33U] | 0.03 |
| GGCAGAGCUCAACACAGCGUGGUAAAGUGGCUCUGCCUAGGCUGCG [C23U G33C G36C A41G C46G] | 0.01 |
| GGCAGAGCUCAACACAGCGUGUCAAAGUGGCUGCGGUUAGACUGCG [G22U U34C C37U C46G] | 0.09 |
| GGCAGAGCUCAACGCAGCGUGGCAAUGUGGAUGUGGCUAGACUGCC [A14G A26U C31A] | 0.01 |
| GGGAGUCCUCAACAGAGCGUGGCAAAGUGGCUGUGGCUAGACUCCC [C3G A6U G7C C15G G44C] | 0.08 |
| GGCAGAGCUCAACUUCGCGUGGCAAAGUGGCUGUGGCUAGACUGCC [A14U C15U A16C] | 0.07 |
| GGCCGAAGUCAACACAGCGUGGCAAAGUGGCUGUGGCUAGACUGCC [A4C G7A C8G] | 0.11 |
| GGCAGAGCUAAACACUGCGUGGCAAAGUGGCUGUGGCUAGUCUGCC [C10A A16U A41U] | 0.01 |
| GUCAUAGCUCAACACAGCGUGGCAAAGAGGCUGUGGCUAGACUGCC [G2U G5U U28A] | 0.04 |
| GGCAGAGCUCAACACAGCGUGGCAAAGUGCAUGUGUCUAGACUGCC [G30C C31A G36U] | 0.2 |
| GGCAGAGCUCAACACAGCGUCUGAAAGUGGCUGUGGCUAGACUGCC [G21C G22U C23G] | 0.25 |
| GGCAGAGCUCAACACAGCGUGGCAUAGUUGCUGUUGCUAGACUGCC [A25U G29U G35U] | 0.03 |
| UGCAGAGCUCAACAGAGCGUGGCAAAAUGGCUGUGGCUAGACUGCC [G1U C15G G27A] | 0.01 |
| GCCAGAGCGCAACAGACCGUGGCAAAGUGGCUGUGGCUAGACUGCC [G2C U9G C15G G17C] | 0.02 |
| GGCAGAGCUCAACACAUCGUGGCAAAAUGGCUGUGGCGAUACUGCC [G17U G27A U38G G40U] | 0.05 |
| GGCAGUGCUCGACACAGCGUGGCAAAGUGGUUGUGGCUAGACUGCC [A6U A11G C31U] | 0.02 |
| GGCAGAGCUGAACACAGCGUGGCAAAUUGGCGGUGGCUAGACUGCC [C10G G27U U32G] | 0.05 |

| Variant | self-cleavage |
| --- | --- |
| GGCAGAGCGCAACACAGUGUGGCAAAGUGGCUGUGCCUAUACUGCC [U9G C18U G36C G40U] | 0.04 |
| GGCAGAGCUCAAUACAGUGUGGCAAAGUGCCUGUCGCUAGACUGUC [C13U C18U G30C G35C C45U] | 0.11 |
| GGCAGAGCUCAACACAGCGUGACAAAGUGGGUGUGGCUAGAUUGCC [G22A C31G C42U] | 0.03 |
| GGCAGAGGUCAACUCAGCGUGGCGAAGUGGCUGUGGGUAGACAGCC [C8G A14U A24G C37G U43A] | 0.01 |
| GGCAGAACUCAUCAGAGCGUGGCAAAGUGGCUGUGGCUAGACUGCC [G7A A12U C15G] | 0.13 |
| GACAGAGCUCAACACAGCGUGGCAAUUUGGCUGUGGCUAGAUUGCC [G2A A26U G27U C42U] | 0 |
| GGCUGAGUUAAACACAGCGUGGCAAAGUGGCUGUGGCUAGACUGCC [A4U C8U C10A] | 0.06 |
| GGCAGCGCUCAACACAGUGUGUCACAGUGGCUGUGGUCAGGCUGCC [A6C C18U G22U A25C C37U U38C A41G] | 0.04 |
| GGCAGAGCUAAACACAGCGUGGCAAAGUGUUUGUGGCUAGACUGCU [C10A G30U C31U C46U] | 0.03 |
| GGAAGAACUCAACACAGUGUGGCAAAUUGGCUGUCACUAGACUGCC [C3A G7A C18U G27U G35C G36A] | 0.11 |
| GGCAAAGUGCAACACAGCGUGGCAAGGUGGCUGUGGCUAUACUGCC [G5A C8U U9G A26G G40U] | 0.01 |
| AGCGAAGCUCAAAACAGCGUCGCAAAGUGGCUGUGGAUAGACAGCC [G1A A4G G5A C13A G21C C37A U43A] | 0.04 |
| GGAGAAGCUCAACACAGCGUGGCAAAGUGGCUGUGGCUAGACUGCC [C3A A4G G5A] | 0.27 |
| GCCAGAGCUCAACACGGCGUCUCAAAGUGGCUGUGGCUAGACUGCC [G2C A16G G21C G22U] | 0.03 |
| GGCACAGUUCAACACAACAUGGCAAAGUGGCUGUGGCUAGACUGCC [G5C C8U G17A G19A] | 0.13 |
| GGCAGAGCUCAACACAGCGUGGCAAAGUGACUGUGGAUUGACUGCC [G30A C37A A39U] | 0.25 |
| GGCAGGGCUCAGCACAGAGUGGCAAAGUGGCUGUGGCUAGACUGCC [A6G A12G C18A] | 0.01 |
| GGGAAAGCUCAACACAGCGUGGCAAAGUAUCUGUGGCUAGACUGCC [C3G G5A G29A G30U] | 0.21 |
